Drawing on PMC5836133, this text covers binding signal for 109 sequences.

The list shows a part of the results. At the low end of the ranking, values are background and their order means little.

The subject of this assay is T1, GST-NbGlk1(82-244).
T1 sequence: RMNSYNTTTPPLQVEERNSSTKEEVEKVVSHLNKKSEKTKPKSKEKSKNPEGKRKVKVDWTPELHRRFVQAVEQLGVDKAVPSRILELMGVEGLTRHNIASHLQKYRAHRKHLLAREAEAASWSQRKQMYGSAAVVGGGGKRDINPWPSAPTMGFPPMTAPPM
Kind of assay: protein-binding microarray.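 Note: rank-based score ranging −0.5 to +0.5 with E above 0.45 taken as significant binding.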 As to conditions: NbGlk1 is a Golden2-like transcription factor of Nicotiana benthamiana; high values mean tight binding; most listed sequences are background and not binding sites; double strand, one strand shown.
For AGATCCAT, the binding signal turned out to be 0.195 E-score.
Next, AGGGTAGA: -0.0101 E-score; AGACACTG: -0.0337 E-score; CAGCCTTC: -0.276 E-score.
Next, AAAGTGAT: 0.217 E-score; ACGTCTGC: -0.172 E-score; AGGCATAC: -0.0786 E-score.
For ACGCTGAG, the binding signal was found to be 0.0237 E-score.
Next, AACAGGCA: -0.0499 E-score; ATATCAGC: 0.268 E-score; ATATCATC: 0.311 E-score.
Next, AGCCCGGA: -0.203 E-score; AAGGATTA: 0.278 E-score; ATATCATG: 0.373 E-score.
In the case of CACGTGCC, the binding signal was -0.0897 E-score.
AAATACAT returned a binding signal of 0.148 E-score.
Next, AAAGTAAC: -0.0535 E-score.
For AGCTAGGA the value was 0.0562 E-score; for AGAATTCT, 0.299 E-score; for AACTTGGG, -0.23 E-score.
Next, ATATAAAT: 0.276 E-score; ATTAAATA: 0.111 E-score.
For AGATAGGC, the binding signal is -0.000114 E-score.
For ATGTTCGC the value was -0.207 E-score; for ACAGTTAC, -0.0164 E-score.
For ACGTCGCT the value was -0.0903 E-score; for ATTCATGC, 0.0644 E-score; for AACCCTAA, -0.114 E-score.
For CAGCCGAG the value was -0.083 E-score; for ACGCATTA, 0.0439 E-score.
As for AATAGCGA, the binding signal is 0.0762 E-score.
Next, AGTGTCTA: -0.0647 E-score; AGAAATTA: 0.17 E-score; AGGCGTAT: 0.101 E-score.
For ATACAGCA the value was 0.0291 E-score; for AGAACGCC, -0.229 E-score.
For ACCCAAAC the value was 0.0447 E-score; for ATGCCCAT, -0.0242 E-score.
Turning to AGTCGAAG, the binding signal was -0.123 E-score.
Next, AACGTCGC: -0.0232 E-score; ATTGATTA: 0.145 E-score; AAACATCT: -0.0426 E-score.
As for AAATGACT, the binding signal was -0.0301 E-score.
Next, ATATAAAG: 0.107 E-score; ATGAACCA: -0.0258 E-score; ATTATGAC: 0.12 E-score.
For AGCAGTTA the value was -0.0416 E-score.
Take ATCAGTAC: the binding signal stood at 0.189 E-score.
Next, ACGCCTGA: -0.0157 E-score; ATCCCGCG: 0.151 E-score; ACCCACTG: -0.222 E-score.
For CACATCCC the value was -0.0296 E-score.
Next, ATCCAGAG: 0.168 E-score; AACGATGG: 0.0149 E-score; ATCGGGAG: 0.119 E-score.
On to ATCAGTGC, for which the binding signal worked out at 0.107 E-score.
Next, AGCCTTTG: -0.315 E-score.
For ATGTTAAA the value was 0.151 E-score; for ATAACATA, 0.073 E-score; for ATATGGTG, 0.189 E-score.
Next, AAATACCG: 0.15 E-score; CAACGGGC: -0.22 E-score.
AAGGGTGA: the binding signal was -0.146 E-score.
For AAAGCAAA the value was 0.0674 E-score.
For AATTGTTA the value was 0.154 E-score.
For ACAGACTG the value was -0.264 E-score.
In the case of AACCCTTA, the binding signal was -0.215 E-score.
For AAAATGAA the value was 0.153 E-score; for AGATTTAT, 0.261 E-score.
Next, ACAATAAG: 0.0285 E-score; CAGCGAGA: 0.00393 E-score; ATTGTGGA: 0.202 E-score.
Next, ATCTTAAA: 0.272 E-score.
The sequence ATTAAAAA came in with a binding signal of 0.0739 E-score.
The sequence ATCTGGTC had a binding signal of 0.262 E-score.
Consider CAACACCC, for which the binding signal is -0.264 E-score.
For AAAAGGAC the value was -0.107 E-score; for ACGGTCTG, -0.135 E-score.
Next, AACGTCTT: -0.0984 E-score; ATAGCTGC: -0.039 E-score.
Next, ATGCTACA: -0.00326 E-score; ACATGTGG: -0.225 E-score; CAATAGAC: -0.0684 E-score.
In the case of AGGCCAAG, the binding signal is -0.141 E-score.
Next, AGCATAAA: -0.0921 E-score; ATGTCCGG: -0.0686 E-score.
For ACCTGGAA the value was -0.105 E-score; for ATTGTGTG, 0.203 E-score.
For AGTCAAAT the value was 0.0613 E-score.
The sequence ATATACTA came in with a binding signal of 0.155 E-score.
For AAATCTCA the value was 0.444 E-score; for AAAAGGCT, -0.177 E-score; for AAAATAAA, 0.218 E-score.
For the sequence ATTGGACC, the binding signal was -0.163 E-score.
For AACATACG the value was -0.098 E-score; for CAACCGTA, -0.019 E-score; for AGCTATTA, -0.0662 E-score.
For ATCCGCGG the value was 0.28 E-score.
For ACCATACC the value was -0.0604 E-score; for ATACGAGC, 0.0456 E-score.
As to ACTTACAG, the binding signal is -0.162 E-score.
Sequence ACTATCTC came in with a binding signal of 0.171 E-score.
For AACGCCGG the value was -0.128 E-score.
For ATAGTCGC the value was -0.193 E-score; for ACAACAAT, 0.126 E-score; for AGGTAATG, -0.0688 E-score.
For ACCGACCA the value was -0.163 E-score; for ATTTTAGC, 0.0519 E-score.
AGCGTCAT: the binding signal was -0.173 E-score.
